From the supplement of paper PMC10126150
Values marked as one replicate rest on one cluster of the flow cell; about a third of the high ones do not repeat.

Test system: ATP
Assay: switch fluorescence ratio, 500 uM ATP over buffer (Cy3 cluster intensity, sum of 5 cycles each) (fold (ratio)); higher = stronger signal-on switching upon ATP binding; sequences stand for … in TCGTCGGCAGCGTCAGATGTGTATAAGAGACAGTTTTTTTTTTTTTTTTTTTTTTTTT…TC
Conditions: aptamer strand: ATP DNA aptamer (quencher-CACCTGGGGGAGTATTGCGGAGGAAGG + anchor), 100 nM annealed; ATP concentration: 500 uM; one replicate
Outline: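 Clusters carrying Cy3-labelled switching strands on a modified Illumina MiSeq flow-cell were annealed to 100 nM quencher-labelled ATP aptamer and imaged in selection buffer. They were imaged again after 15 min with 500 uM ATP at 22 °C, over five buffer/ATP cycles with NaOH stripping and re-annealing in between. For each cluster, the fluorescence ratio is the summed Cy3 intensity of the target cycles divided by that of the buffer cycles, averaged per switch-domain sequence. Clusters outside 100-1000 RFU were left out.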
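Further: ATP exposure 15 min at 22 °C before imaging.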

Sequence	switch fluorescence ratio
ACACAGCTGG	1.03
CGTAAGGTTG	0.945
CATAGAAGGA	1.01
ACAGGCAATT	0.982
CCCATTACAG	0.999
CGAGGACGG	1.04
GGAACATGTC	0.997
AATTAAAGAG	0.988
TATCAATAGA	0.997
CTTTTGATCC	1.04
TTAAATTGCA	0.995
CGGTGAGACC	0.999
AAGCTGTGT	0.993
TCCAAAATGT	1.01
TAAGATTCTT	0.999
ATGACGCCGC	1.76
CACGTAAACA	1.23
CCTGTGACGA	1.07
GACGCTTATG	0.996
GGTTGTCCTG	1.02
ATAAGCTCAA	1.03
AGAATCTAGC	0.975
CTCGCATAAT	2.69

Sequence	switch fluorescence ratio
GGTTCAGTAT	1.01
AAACACGTGT	1.13
GTTGGTTGCA	0.95
CACTAGTCTT	0.98
GCGGTGGGTA	0.985
GATATTATCT	1.01
CCATAAGTCG	1.06
AGACGCTTGA	1.02
GTAATATTA	0.99
GGTTGCGTGC	0.998
CAATGTCGCA	0.994
CACGTAGGAC	1.19
CTGCACTGAG	1.04
AACTTAAGGC	0.965
TGCCGACCCA	1.05
CGTTGTCTAC	1.02
ACGTGCTTTA	1.01
GGCCATGATT	1.01
GGAAGAGCAA	1.54
GTAAATGTAT	1
GAATAGTGCG	1.02
AGGGGGACT	0.995
CCCATTGTCT	1.07

Sequence	switch fluorescence ratio
TTATTGTGGT	0.958
GCTCTATCCC	1.05
GAACATCGTC	1.07
GGTGGTTTTC	1.01
TCGCAGGACA	1.28
GGCTTAGTAG	0.993
AATGTGAGAG	1.01
TTGCCGGTTA	1.02
GATAACCACT	0.998
GAGGGGCAT	0.989
GCTCGGCAAG	1.51
AAAAGTGCTA	0.959
GTTTAGGGCC	1.01
GAGTTAGCGG	0.994
ACTAATCTCT	1.06
GGACTTGTGT	1
TATGGCGATA	0.97
GAGGGTGAGG	0.989
CTTTAATAGA	1.01
TAAAATTTCG	0.995
GCGCCTAGAT	1
GGCTCGTGGT	0.993
CGTATGTGCA	0.987

Sequence	switch fluorescence ratio
AATTCTTTGG	0.993
TTGGAACTA	0.983
GCGCACGGGC	0.978
TAAACTCGTC	1.17
GGAACCAACT	1.08
AATGAACTTG	1
GAACCGAACT	1.56
GTGGGCGACA	1.01
GGGATGTGTG	0.991
ACGTTAACTT	1.26
GCGACGTCCT	1.04
ATTTTCTCGT	1.01
TCTATTCCGC	1.68
AACCCGTGTG	1.05
TTCGATCACA	0.983
ACTCGGCCGA	1.05
CAAGGAGGTA	0.995
CATAGTAGGG	1.02
CGTCGTTCAT	0.948
AGCCGGCTGT	1.01
GATTCAGCGT	1
TTCGACTATG	0.994
CGGGGTCTTT	0.968

Sequence	switch fluorescence ratio
TACCGGGGAA	0.982
AGGTTGCTTT	0.951
GCGCTCACTT	1.06
TGGTTATCCC	1.47
TCGATTGCT	0.976
CTCGTGAATT	1.01
AGCCACATGT	1.01
GGAATTGATC	0.973
TGGGTCTTCT	0.952
ATTCTATAGG	0.959
ATTGCTATTT	0.967
GGGTATAAAT	1.01
GAGCGTGCTT	1.02
TCTGCCGACA	1.03
GAGGCGCCAA	1.02
GAGAAATCCA	1.02
TGTTTGGTCC	1.01
AGTTAGATCA	1.04
CCCTGCCCTG	1.07
CTAATCTAAT	1.01
CTTGTTTACC	1.06
TTGAACTAG	0.993
ACGTGCTGAG	1.01

Sequence	switch fluorescence ratio
ACAGGCTTTC	1.06
ACCATAGCAT	1.41
ACGAATTGCT	0.991
GGTAGTTGGG	1.03
ATGTGCGTTT	1.05
AGCACACTTT	1.05
TGGTCCAACC	1.04
AAGTCCTAGC	1.01
TGTCGGCGGC	1.05
ATCGTCGTCT	1.06
CTTTCGGCGC	1.69
GAGATGGAGC	0.974
CGGGGAGAGA	0.998
ATTATGTGG	0.988
TATCGATCTT	0.983
GATGGGTGCT	1.02
GAGTTACCTG	0.994
GGTTGGCCAC	0.962
ACATTTAAGG	0.998
GATGATGACA	1
TCAGTGCCA	1.03
AGTCTAGA	0.982
ATCCGAAAA	1.06

Sequence	switch fluorescence ratio
GGTGGTTATG	0.962
CCATCGAACG	1.04
AGAATGAATG	0.973
AGACGCGTCG	1.01
GCCAGCTTTG	0.956
TGATGAAAGT	0.974
AGGCGAATTC	0.999
TAGAGCACAC	1.09
GGGGCCTATA	1.05
CATGAACCTT	1.6
CTTATACCCT	1.07
GGCTATTGTA	1
TCTGCCTCAG	1.07
AATTACGGTA	1.18
TATTTTCGAG	0.959
TAGCAGCGCA	1.03
GTTAGGGTAA	1.06
TCAGTGAAAA	0.956
GATTTCCTCT	1.1
